The results in this text go back to US20020177231A1 (published 2002).

In the assay the target is T1, PYK2 (UniProt Q14289).
T1 construct: Endogenous protein in cell lysate, detected with anti-PYK2 monoclonal antibody P47120 (Transduction Labs)
The assay is described as follows: GST pull-down from JY8-8 lysate, anti-Pyk2 immunoblot. Here is the method:
In preparation of cell lysate including Pyk2, JY8-8 cell lysate was prepared by disrupting 4×10⁷ exponentially growing cells in one ml of Ipegal Lysis Buffer (described above) for 10 minutes on ice. Lysate was clarified by centrifugation at 10,000 rpm in a microfuge at 4° C. JY8-8 lysate (corresponding to approximately 1×10⁷ cells) was incubated for 90 minutes with 30 μl glutathione agarose on which approximately one μg of GST or GST-containing fusion protein was immobilized. The resin was washed three times with one ml Ipegal lysis buffer.
Pyk2 present in lysates of JY8-8 cells bound specifically to GST-LD protein but not to GST alone. Pyk2 binding was detected with wild-type GST-LD, and GST-LD proteins with mutations in the second or fourth LD motifs.
(In general: Immunoblotting shows a protein as a band on a membrane.)

B1: GST protein (other)
chain: not shown
notes: Negative control immobilized on glutathione agarose; also called GST alone
Regarding B1, the binding result is reported as “no binding”.
